Results as given in PubChem BioAssay AID651820 (National Center for Advancing Translational Sciences (NCATS), 2012).
Out of some 340,000 compounds screened, about 12,000 (3.5%) were called active. Inconclusive results, whose numbers are uncertain, are shown with a selection of clear calls. Calls follow the shape of the dose curve; as a rule, active = well fitted inhibition curve with a large enough effect; inconclusive = small, poorly fitted or top-dose-only effect, or another doubt; inactive = no such curve, though single readings can be large or run the other way. No potency is given beside an inconclusive call; the fits are too rough.

Assay: qHTS Assay for Inhibitors of Hepatitis C Virus (HCV)
Details: Huh7.5.1 HCVcc-Cre (HCVcc is cell-culture hepatitis C virus) infection, luciferase reporter, 44 h; activity change, negative = inhibition: at 41.8 µM (top of the series)
Method in brief: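 Reporter virus HCVcc-Cre (~0.5 moi) infects cells exposed to compound; seeding density 1,000 cells/well with 4 h settling beforehand. Luminescence, 15 sec read, taken 44 h post-infection following a 15 min RT substrate incubation.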
% is scaled to controls: 0 for no effect and ±100 for the full control effect; potency is read from the fitted curve at half-maximal effect; tags tell the direction and shape of the fitted curve.

SMILES	Potency	activity change, negative = inhibition
C/C=C(/CCC1NCCc2c1[nH]c1ccccc21)[Si](C)(C)C (stereo unspecified)	inconclusive [inhibitor, partial curve, poor fit]	
Cc1ccc2nc(/C(C#N)=C\c3cc(C)n(-c4cccc([N+](=O)[O-])c4)c3C)[nH]c2c1	active: 2.24 µM	
CC1(C)CC(=O)c2cc(C(=O)NCc3ccco3)c(=O)n(-c3ccc(Cl)cc3)c2C1		inactive: 0.407%
COCCNC(=S)N/N=C(\C)c1ccc2cc(OC)ccc2c1	inconclusive [inhibitor, full curve, poor fit]	
O=C(NCCO)c1c(O)c2cccc3c2n(c1=O)CC3	inconclusive [inhibitor, partial curve]	
CC(=O)Nc1ccc(O)c(-c2nc3ccccc3s2)c1	inconclusive [inhibitor, single point]	
Cc1c(C)c2c(c(C)c1O)CC[C@@](C)(CCC[C@H](C)CCC[C@H](C)CCCC(C)C)O2		inactive: 12.4%
C=CCOC(=O)C1=C(C)NC(C)=C(C(=O)OCC=C)C1c1ccco1	active: 11.2 µM	
Nc1nn(-c2ccccc2Cl)cc1-c1nn[nH]n1	inconclusive [inhibitor, single point]	
Cc1nn(Cc2ccccc2)c(C)c1NC(=O)c1noc2c1CCc1ccccc1-2	inconclusive [inhibitor, partial curve]	
COc1cc(O)oc1C=Nc1ccc(Cl)cc1		inactive: -2.42%
O=C1OCCN/C1=C\C(=O)c1ccccc1		inactive: 7.12%
CCn1c2ccccc2c2cc(NC(=O)COC(=O)c3cc(OC)c(OC)cc3OC)ccc21	inconclusive [inhibitor, full curve]	
Cc1c(C(=O)NC2CCCCC2)oc2ccc(F)cc12		inactive: -23.5%
CCOC(=O)c1c(C)[n+](-c2ccc(C)cc2)c(CC)c2cc(OC)c(OC)cc12	inconclusive [inhibitor, single point]	
Cc1ccccc1-c1cc(C(=O)NCC2CC2)n(CC2CC(c3cccnc3)=NO2)n1 (stereo unspecified)	inconclusive [inhibitor, full curve]	
Fc1ccc(Nc2nc(-c3ccncc3)cs2)cc1	inconclusive [inhibitor, partial curve, poor fit]	
Cc1nn(C)c(C)c1CCC(=O)N1CCCC(C(=O)c2cccc(OC(C)C)c2)C1 (stereo unspecified)	inconclusive [inhibitor, single point]	
Cc1cc(C)n(CCCNC(=O)c2ccc(C)c(S(=O)(=O)N3CCOCC3)c2)n1	inconclusive [inhibitor, full curve, poor fit]	
C=CCOc1ccc(/C=C/C(=O)OCC(=O)N(C)CC(=O)Nc2ccc(F)cc2)cc1		inactive: 0.0312%
COc1cc(O)c(C(CCN2CCOCC2)c2cc(OC)c(OC)c(OC)c2)c(OC)c1 (stereo unspecified)	inconclusive [inhibitor, single point]	
COc1ccc(CCNC(=O)c2ccccc2NC(=O)c2ccco2)cc1OC	inconclusive [inhibitor, partial curve]	

SMILES	Potency	activity change, negative = inhibition
COCCN(Cc1ccccc1)C(=O)c1cc(-c2ccc(OC)c(OC)c2)nc2ccccc12	inconclusive [inhibitor, partial curve]	
O=C(CCC(=O)N1CCN(c2ccc(Cl)c(Cl)c2)CC1)c1ccccc1	inconclusive [inhibitor, single point]	
CN(Cc1ccccc1)C(=O)c1ccc(NC(=O)Cc2ccc(NC(=O)C3CCCN(C(=O)C4CCCC4)C3)cc2)cc1 (stereo unspecified)	inconclusive [inhibitor, full curve, poor fit]	
Cc1ccccc1NCC(=O)N/N=C/c1c(C)c(C(=O)c2ccc(Cl)cc2)n2ccccc12	inconclusive [inhibitor, full curve]	
Cc1ccc(-c2nnn(CC(=O)N(Cc3cccs3)C(C(=O)NC(C)(C)C)c3ccco3)n2)o1 (stereo unspecified)	inconclusive [inhibitor, partial curve]	
CCOC(=O)C(=CNc1cc(OC)ccc1-n1cccc1)C(=O)OCC	inconclusive [inhibitor, single point]	
O=C(NCc1ccc2c(c1)OCO2)c1nc(Cn2cc(Br)cn2)no1		inactive: -6.74%
CCC(C)[C@H](NC(=O)Nc1ccc(S(N)(=O)=O)cc1)C(=O)O (stereo partly specified)		inactive: -3.01%
CSc1ccc(/C=N/NC(=O)c2ccccc2Cl)cc1	inconclusive [inhibitor, single point]	
COc1ccc2nc(Nc3ccccc3)sc2c1	inconclusive [inhibitor, partial curve, poor fit]	
Cc1cc(N2CCN(S(=O)(=O)c3ccc(Cl)cc3)CC2)c2ccccc2n1	active: 11.2 µM	
Cc1ccnc(SC2CC(=O)N(c3ccc(Cl)cc3)C2=O)n1 (stereo unspecified)		inactive: 6.95%
CCn1c(=O)c(CCC(=O)NCCN2CCOCC2)c(C)c2c(C)nn(-c3ccccc3)c21	inconclusive [inhibitor, partial curve]	
COC(=O)C/C=C/[C@@H](C)[C@@H](/C=N/OC[C@@H](C)[C@H](OCc1ccccc1)C(C)C)NS(=O)(=O)c1ccc(C)cc1		inactive: -14.7% [at 8.37 µM]
Cc1cc(C(=O)NNC(=S)NC2CCCCC2)cs1	inconclusive [inhibitor, single point]	
CN(C)CCCNC(=O)/C(=C\c1ccc(-c2cccc([N+](=O)[O-])c2)o1)NC(=O)c1ccccc1	inconclusive [inhibitor, partial curve]	
CCCn1c(SCC(=O)c2cc(OC)ccc2OC)nnc1-c1ccco1		inactive: -20.4%
CCOC(=O)c1c(NC(=S)Nc2cccc(C)c2)sc2c1CC(C)(C)SC2	inconclusive [inhibitor, full curve]	
CCOC(CNC(=O)C(=O)Nc1cc2c3c(c1)CCN3C(=O)CC2)OCC	inconclusive [inhibitor, single point]	
O=C(Nc1ccccc1OC(F)F)c1ccc(S(=O)(=O)N2CCCC2)cc1	inconclusive [inhibitor, partial curve, poor fit]	
Nc1nn(-c2ccccc2)c(N)c1N=Nc1cccc(F)c1	inconclusive [inhibitor, partial curve]	
O=C(CSc1ccccn1)Nc1nc2ccc(Br)cc2s1	inconclusive [inhibitor, partial curve]	

SMILES	Potency	activity change, negative = inhibition
CCc1ccc(NC(=O)CSc2nc3ccccc3c(=O)n2CCCC(=O)N2CCCC2)cc1	inconclusive [inhibitor, full curve, poor fit]	
CCOc1ccc(NC(=O)CN2CCCC2c2cccs2)cc1S(=O)(=O)N1CCCC1 (stereo unspecified)	active: 11.2 µM	
CC(C)(C)c1ccc(OC(=O)c2ccccc2)cc1		inactive: 7.77%
Cc1ccc(NC(=O)c2cccs2)cc1		inactive: -3.81%
CCOc1ccccc1NC(=O)c1nnn(-c2ccc3c(c2)OCCO3)c1N	inconclusive [inhibitor, single point]	
C[C@H]1CCCC(=O)CCCCCc2cc(O)cc(O)c2C(=O)O1	inconclusive [inhibitor, single point]	inactive: 0.111% [at 8.37 µM]
COC(=O)c1cc(OC)c(OC)cc1NC(=O)CSc1nnnn1Cc1ccccc1	inconclusive [inhibitor, partial curve]	
Cc1ccc(S(=O)(=O)N(CC(=O)N=Nc2c(O)[nH]c3ccccc23)c2ccc(C)c(C)c2)cc1	inconclusive [inhibitor, single point]	
Cc1cc(=O)n2[nH]c(N)c(N=Nc3ccccc3F)c2n1	inconclusive [inhibitor, partial curve]	
CC(C)(C)c1ccc(C(=O)NC(=S)NCc2cccnc2)cc1	active: 22.4 µM	
CC[C@H](C)[C@H]1O[C@]2(CC[C@@H]1C)C[C@@H]1C[C@@H](CC=C(C)[C@@H](O[C@H]3C[C@H](OC)[C@@H](O[C@H]4C[C@H](OC)[C@@H](O)[C@H](C)O4)[C@H](C)O3)[C@@H](C)C=CC=C3CO[C@@H]4[C@H](O)C(C)=C[C@@H](C(=O)O1)[C@]34O)O2	inconclusive [inhibitor, full curve, poor fit]	
COc1ccc(NC(=O)C(NC(=O)Cc2cccs2)c2ccccc2)cc1 (stereo unspecified)		inactive: 2.06%
COc1cccc(/C=C2\SC(=S)N(C(C)C(=O)NC3C=CS(=O)(=O)C3)C2=O)c1 (stereo unspecified)		inactive: -4.69%
CN(Cc1cccc(Cl)c1)C(=O)C1CCC(=O)N(C2CC2)C1 (stereo unspecified)	inconclusive [inhibitor, single point]	
O=C1C(=O)N(Cc2cccnc2)C(c2cccc([N+](=O)[O-])c2)/C1=C(\O)c1ccc2c(c1)OCCO2 (stereo unspecified)		inactive: 22.4%
CCCN1CCc2c(sc(NC(=O)c3ccc(S(=O)(=O)N(C)c4ccccc4)cc3)c2C(=O)NC)C1	inconclusive [inhibitor, single point]	
COc1ccc(N2CCN(C(=O)CCc3ccc(S(=O)(=O)NC(C)(C)C)cc3)CC2)cc1	inconclusive [inhibitor, partial curve]	
CN1C(=O)C(C)(C)c2cc(S(=O)(=O)N3CCN(c4cccc(Cl)c4)CC3)ccc21		inactive: 4.5%
CCC(=O)OCCNc1nc(-c2ccccc2)nc2ccccc12	inconclusive [inhibitor, single point]	
COc1ccc(C(=O)NNC(=O)CCn2nnc(-c3ccc(C)cc3)n2)cc1OC		inactive: 8.52%
COc1ccc(C(=O)NNC(=O)CSc2nnc(COc3ccc4ccccc4c3)n2C)cc1		inactive: -3.4%
